Consider 22 molecules from paper PMC12136788.

Sequences and labels used below:
B1: chr11:112063736:112063838:+|3pUTR|ENSG00000150768|unk|FALSE|unique (ssRNA)
RNA: GGGAGUUCUACAGUCCGACGAUCGAGAGAAAAAAUUAACUAGGUUGCUACUUUAUUUGCCUAAAUACUUUUUUCUAUUUUGUUAGAUUUUGCCUUUCUUUUGGAAGGAAGGAGGCGAUAUUCUGGAUUAUAAAAAUGAAUUGGCAACAGAGGAUUGAGCAUCA
B2: chrX:101625945:101626046:+|CDS|ENSG00000102401|unk|total|mutant (ssRNA)
RNA: GGGAGUUCUACAGUCCGACGAUCAGGUUCACUUUUUUUCUUUUUAAAAGAAUUUCAAGUGUGUGCUGAUAAGGUUCUGGGAACCGAAAGUCACCAUGAUUUUUUGGUGAAAGUAAAAGUUGGAAAAUUCAUGGCCAAACUUGCCAACAGAGGAUUGAGCAUCA
B3: chr21:43756582:43756683:+|3pUTR|ENSG00000160209|msi1|FALSE|unique (ssRNA)
RNA: GGGAGUUCUACAGUCCGACGAUCGCAUUCGAACUUUUGGUUCUUACUUUGCUGCUCGUUUAGUCCCUGGGGAUUUCAGAUCUUAGGCUGUUGUUUCACCGUAUGGGAGGGUUGAUGUGAGCUUGCUUGGAGACACACGGUGCACAACAGAGGAUUGAGCAUCA
B4: chr2:130346496:130346597:+|3pUTR|ENSG00000136718|unk|FALSE|unique (ssRNA)
RNA: GGGAGUUCUACAGUCCGACGAUCACUCAGUCAGGACAUGGACUUGGAACUCAGGAUGGGGCUGUCAUAGACAGACCCACCAGUAGGAACUGUCACAGAAUGGCCUGCUGAACUGGGAUGUGGAACUGUGGCGGGUGGAGAGGUCAACAGAGGAUUGAGCAUCA
B5: chr7:39987650:39987751:+|CDS|ENSG00000065883|unk|total|mutant (ssRNA)
RNA: GGGAGUUCUACAGUCCGACGAUCUCCCGGCAUUCAAGAUCUCGCCGCAGGCACAGAUUGUCCCGAUCCAGAAGUCGUCAUUCCCGUAUUUCUCCCCGCACACUAACUCUGAAGAGCCGCCUGGCAGCUGAAUUGAACAAGAAUCAACAGAGGAUUGAGCAUCA
B6: chr12:123761472:123761573:+|3pUTR|ENSG00000185344|unk|total|mutant (ssRNA)
RNA: GGGAGUUCUACAGUCCGACGAUCAAUAAGGCAGUUUGAACGAACAGUCUUCCCACAGUCAGGCCAUUUUUGCUGAUUUGGUUCCGAAUUUUCAGAAAUACUCCGUACACUCCACCUGUUCUUUGAUGGGAAUAUCUAAGAAGGCAACAGAGGAUUGAGCAUCA
B7: chr1:17067390:17067767:-|3pUTR|ENSG00000117115|msi1|FALSE|unique (ssRNA)
RNA: GGGAGUUCUACAGUCCGACGAUCCCCAACAUGCAAAGCCCACAUUUAAAGGCCAGCCUCUGCCCCUUCAGUGAUGCGCUCUUUAGAAAUGCCAGUCCACUAUAUUCAGAAAUCCGCAGGGCACAAAACUUCCAGCAAGUCACUCAACAGAGGAUUGAGCAUCA
B8: chr6:105100707:105100870:-|3pUTR|ENSG00000112276|msi1|total|mutant (ssRNA)
RNA: GGGAGUUCUACAGUCCGACGAUCUGAGAUAUAUAUUUUCACAGUCUUUUCCCGAUAUAUUAUUGUUUUAACUUAACAAAUCUCCGCAAUCUCUCAAUGCCUUUUCACUUAUUUUUUUCCAAGUUAUGAUUCUUUUUCCUCACACAACAGAGGAUUGAGCAUCA
B9: chr1:119801171:119802827:-|three_prime_utr|ENSG00000134193|control|control|control (ssRNA)
RNA: GGGAGUUCUACAGUCCGACGAUCAAUUCACAGAAAGGAUAAUGGAGUUUCUGUACAAGAUUUACCAGAAAGAGAGUGGUGUGUAGACAUGCCUGGAGCAGACACCUUGGAGCCGCUGACAGAAGGUGAAGCAGUCCAAGAAAACAACAGAGGAUUGAGCAUCA
B10: ENSG00000107863:be:win_201|CDS|ENSG00000107863|bound_else_gene|NA|bound_elsewhere_windowed (ssRNA)
RNA: GGGAGUUCUACAGUCCGACGAUCUAUUGUUUAUCCCCCAGAGUCUGCAAUUCAAUUUUCAUAUAAGGAUGAAGAAAAUGGAAACAGAGGAGGAAAACAAAGAAACCGCUUGGAACCAAUGGAUACCAUAUUUGUUAAGCAAGUCAACAGAGGAUUGAGCAUCA
B11: chr4:112268257:112268372:+|CDS|ENSG00000138660|unk|total|mutant (ssRNA)
RNA: GGGAGUUCUACAGUCCGACGAUCAGUAAUCCUACAUCAGCCUCUGAUGAUUCCAAUGGGCUGGAGUGGGAAAAUGAUUUUGUCCGUGCCGAAAUGGAUGAUAAUGGAAAUUCCGAGUAUUCUGGAUUUGUAAAUCCUGUAUUACAACAGAGGAUUGAGCAUCA
B12: chr6:25850458:25850620:-|CDS|ENSG00000124564|control|control|control (ssRNA)
RNA: GGGAGUUCUACAGUCCGACGAUCCUCAGAUCUCUACCCAUUUGGUCCAUAUGUUUAGGCUGUUUCAGCCAUCAAUGGUUAGUUAGCACAAUGGUUGUAUACAUACCAACUUACAUCAGCUCUGUGUACCAUGUUAACAUCAGACAACAGAGGAUUGAGCAUCA
B13: chr1:202892395:202892497:-|3pUTR|ENSG00000117153|unk|total|mutant (ssRNA)
RNA: GGGAGUUCUACAGUCCGACGAUCGCGAGAAGUGACCAUUGUUGGAGCACCAUCCAGAGCCCGUGACCAGUCCAGUGGACAGUCCGUGGGAGAAUCAAAAAUCCUUUCCAGAAUGUCUGUUUCUCACUAUGUGCACCGGGUGAUCAACAGAGGAUUGAGCAUCA
B14: chr11:30010719:30012678:-|CDS|ENSG00000182255|control|control|control (ssRNA)
RNA: GGGAGUUCUACAGUCCGACGAUCUUUGCUCAAGAAAUUUCGGAGCUCUACUUCUUCUUCCCUGGGGGACAAGUCAGAGUAUCUAGAGAUGGAAGAAGGAGUUAAGGAAUCUCUGUGUGCAAAGGAGGAGAAGUGUCAGGGAAACAACAGAGGAUUGAGCAUCA
B15: chr1:109313209:109313310:-|3pUTR|ENSG00000134243|msi1|total|mutant (ssRNA)
RNA: GGGAGUUCUACAGUCCGACGAUCCAGGGCAAUAUUUUUAACUUGGGGCAGGAAGAAGGGAGCAGCAGAGAAUUGACCCGAUACCGCACCUAUUAAAAGAGAACUCUUGCUUCUUCUGAGAUUUUUCAAGCUGUGCUUUGUGUGCAACAGAGGAUUGAGCAUCA
B16: chr1:113685846:113685948:+|3pUTR|ENSG00000081026|unk|FALSE|unique (ssRNA)
RNA: GGGAGUUCUACAGUCCGACGAUCUAUAUACACUUGAGGUUCUGAUUAGAGAAAGAUCUGUAAAUUGCUCAUUAUUUUUUAUAUAGAUAUUUAAAAAAAACAGUUUAUGGCCUGCAUUUCUUUUACUGUCACAUUGGUUUAAUGCAACAGAGGAUUGAGCAUCA
B17: chr19:19663270:19663666:-|CDS|ENSG00000105726|control|control|control (ssRNA)
RNA: GGGAGUUCUACAGUCCGACGAUCCGGGCAGCCCAAGCCCGGGCCGCAGCCGCGCGCGCUCCUUGCCGCCGGGCCGGCGCUCAUAGCGAACGGUGACGAGCUGGUGGCUGCCGUGUGGCCGUACCGGCGGUUGGCGCUGUUGCGCAACAGAGGAUUGAGCAUCA
B18: chr20:7981316:7981417:-|3pUTR|ENSG00000125827|unk|FALSE|bound_elsewhere (ssRNA)
RNA: GGGAGUUCUACAGUCCGACGAUCUAAGUUUUCUAAGCAAUAUUUUUCAAGCCAGAAGUCCUCUAAGUCUUGCCAGUACAAGGUAGUCUUGUGAAGAAAAGUUGAAUACUGUUUUGUUUUCAUCUCAAGGGGUUCCCUGGGUCUCAACAGAGGAUUGAGCAUCA
B19: chr7:95297675:95299102:-|three_prime_utr|ENSG00000005421|control|control|control (ssRNA)
RNA: GGGAGUUCUACAGUCCGACGAUCACAGUGUUUCACAAAGCUCUUUACUGUGAGCUCUAACAGACCGAUUUGCACCCAUGCCAUAGAAACUGAGGCCAUUAUUUCAACCGCUUGCCAUAUUCCGAGGACCCAGUGUUCUUAGCUCAACAGAGGAUUGAGCAUCA
B20: chr1:235448940:235449205:-|3pUTR|ENSG00000162885|unk|FALSE|unique (ssRNA)
RNA: GGGAGUUCUACAGUCCGACGAUCAAUAGAGAAUUCCAUUAAAACUAGUCUUAUGACAGAUAUUAACUGUGUUCAGAUUUUAUUAGGCUAGCUAGUUUCUUUCUAUUUAAUAUUUAAAUCUUAUCAUGAAAUGCAGUGAUGAGCCAACAGAGGAUUGAGCAUCA
B21: chr1:23854467:23854568:-|CDS|ENSG00000179163|unk|total|mutant (ssRNA)
RNA: GGGAGUUCUACAGUCCGACGAUCAAGUCAAGUGGUUUUACUCCUCAUGACCAAAUAUUCUUUCCCUCCUCCGGAUGAGGUGGCCGUAAAUGACCGAUGGGGUCAGAACUGUUCCUGUCACCAUGGAGGAUACUAUAACUGUGACAACAGAGGAUUGAGCAUCA
B22: chr16:58599380:58599482:-|5pUTR|ENSG00000125107|unk|FALSE|unique (ssRNA)
RNA: GGGAGUUCUACAGUCCGACGAUCCAGAACAGAGUAAGACCCCUGGUAAAGAAGAACUGAAGAUAUUAUACAGAUACCAGAUAUAGCCUAAUUACAAAGAAAGCAUUAACCUGCCUCUGAGGUGACUAAAGGGGAAUAAUGGUGCAACAGAGGAUUGAGCAUCA

Some of the results follow.

The target of the assay is MSI1 full-length (mouse, UniProt Q61474 1-362). Kind of assay: nsRBNS (natural sequence RNA bind-n-seq); RBNS binding buffer (assumed for nsRBNS): 25 mM Tris pH 7.5, 150 mM KCl, 3 mM MgCl2, 0.01% Triton X-100, 500 ug/ml BSA, 20 U/ml SUPERase-In, 4 C; UNK is unkempt and MSI1 is Musashi-1; names of the RNAs are library labels; protein concentration not given here; high values mean tight binding.
Chain of UniProt Q61474 (Q61474 whole entry): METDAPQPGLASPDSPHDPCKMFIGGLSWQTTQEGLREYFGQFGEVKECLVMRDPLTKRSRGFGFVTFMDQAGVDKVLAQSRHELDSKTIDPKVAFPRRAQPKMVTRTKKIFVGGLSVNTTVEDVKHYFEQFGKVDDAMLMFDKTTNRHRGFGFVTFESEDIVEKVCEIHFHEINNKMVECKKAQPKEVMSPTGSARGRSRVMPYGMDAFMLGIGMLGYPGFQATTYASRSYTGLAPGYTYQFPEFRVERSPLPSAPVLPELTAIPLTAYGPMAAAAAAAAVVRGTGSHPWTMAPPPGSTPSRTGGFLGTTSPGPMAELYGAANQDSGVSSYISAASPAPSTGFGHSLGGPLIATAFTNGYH
As to B1, the binding signal came out at 0.593 enrichment R.

Turning to B2, the binding signal was 0.256 enrichment R.

As to B3, the binding signal was 0.553 enrichment R.

B4 had a binding signal of 0.875 enrichment R.

As to B5, the binding signal worked out at 0.458 enrichment R.

Take B6: the binding signal was 0.207 enrichment R.

Turning to B7, the binding signal came out at 1.49 enrichment R.

For B8, the binding signal was 2.22 enrichment R.

On to B9, for which the binding signal came out at 0.53 enrichment R.

For the molecule B10, the binding signal worked out at 0.208 enrichment R.

Take B11: the binding signal was 0.258 enrichment R.

In turn, B12 came in with a binding signal of 0.737 enrichment R.

In turn, B13 had a binding signal of 0.267 enrichment R.

B14 yielded a binding signal of 0.563 enrichment R.

In turn, B15 returned a binding signal of 0.648 enrichment R.

With B16, the binding signal is 13.4 enrichment R.

As for B17, the binding signal was found to be 0.223 enrichment R.

In turn, B18 returned a binding signal of 0.499 enrichment R.

B19 displayed a binding signal of 0.575 enrichment R.

In the case of B20, the binding signal was found to be 13.3 enrichment R.

Molecule B21 gave a binding signal of 0.336 enrichment R.

The molecule B22 displayed a binding signal of 2.04 enrichment R.
